We go through 85 molecules from ChEMBL document CHEMBL4888484, “Replenishing the malaria drug discovery pipeline: Screening and hit evaluation of the MMV Hit Generation Library 1 (HGL1) against asexual blood stage Plasmodium falciparum ,using a nano luciferase reporter read-out” (2022).

The term % Inhibition denotes the drop in the measured response relative to a control, in per cent.

SMILES strings stand for the structures. Hit rate of the full screen: of about 150,000 compounds, about 540 (0.36%) showed an effect of 50% or more. The list shows a part of the results.

This assay relates to Plasmodium falciparum. Kind of assay: Primary screen in NF54 nanoGlo assay, in single point, at 2uM, 72h; a lower Z score goes with more inhibition. It is filed as functional, Erythrocyte. To be noted: timepoint 72 hour.
For `O=C(c1cnn2c1CCC2)N1CCN2CCOc3cccc1c32`, the “% Inhibition” value is reported as -7% and the Z score is 0.97.
Consider `CCc1nc(NC(=O)NCc2cn(C)cn2)sc1C(C)(C)C`, for which the “% Inhibition” value is -11% and the Z score turned out to be 1.52.
In the same order, the values of `COC1CCCC1OC(=O)c1ccc2c(c1)N(C)CC2` (stereo not given) are 14% and -1.53.
In the case of `O=S(=O)(c1cccc2nonc12)n1cccn1`, the “% Inhibition” value is recorded as -10% and the Z score is listed as 1.15.
In the same order, the values of `CN(C)CCOc1cc(C(=O)Nc2cccc3[nH]ccc23)ccn1` are -7% and 0.92.
In the same order, the values of `CCCNc1ncc(CN(C)Cc2nnc(C)o2)cn1` are 10% and -1.32.
In the same order, the values of `CC(C)c1noc(C(C)NCC2CCCn3ccnc32)n1` (stereo not given) are -1% and 0.24.
Take `O=C(CNc1ccccc1)Nc1nc(-c2ccc(Cl)cc2)cc(-c2ccc(Cl)cc2)n1`: the “% Inhibition” value is -3% and the Z score is reported as 0.51.
Taken in the same sequence, the figures for `COc1cc(NC(=O)Nc2cc(OC)c3c(c2)OCO3)cc2c1OCO2` were 18% and -2.28.
In the same order, the values of `Cc1cc(F)ccc1N1CCC[C@H](Nc2ncccn2)C1=O` are -5% and 0.63.
In the same order, the values of `COc1ccc(C2=NO[C@@H](CN(Cc3cccc(Cl)c3)C(=O)c3ccccc3F)C2)cc1` are -10% and 0.97.
Turning to `COc1ccc(C(=O)N2CC[C@H](N)C2)cc1-c1ccccc1`, the “% Inhibition” value is on record as -5% and the Z score was found to be 0.69.
For `CCN(C)C(=O)c1ccc(-c2ccnc3c2ccn3C)nc1`, the “% Inhibition” value is 0% and the Z score is on record as -0.03.
In the same order, the values of `CCn1cncc1S(=O)(=O)N(C)C1(C)CCCC1` are -10% and 1.01.
Take `CCC(C)OCC(=O)N1CC(=O)NC(C)C1` (stereo not given): the “% Inhibition” value is given as 1% and the Z score is on record as -0.17.
Taken in the same sequence, the figures for `NS(=O)(=O)c1ccc(CCNC(=O)C(Cl)(Cl)Cl)cc1` were 9% and -1.06.
For `C(#CCN1CCN(CC#CCOC(c2ccccc2)c2ccccc2)CC1)COC(c1ccccc1)c1ccccc1`, the “% Inhibition” value is reported as 1% and the Z score is -0.13.
Taken in the same sequence, the figures for `COc1ccc(NC(=O)c2ccc(NC(=O)c3cc(S(=O)(=O)Nc4ccccc4OC)ccc3C)cc2)cc1` were -3% and 0.36.
In the same order, the values of `C[C@H]1Cc2ccccc2N1C(=O)C1CCC(=O)CC1` are 2% and -0.2.
Taken in the same sequence, the figures for `COc1ccc(S(=O)(=O)N2CCC3(CC2)Nc2ccc(Cl)cc2-n2cccc23)cc1` were -12% and 1.59.
Consider `CC(C)c1nccc(NCCc2cc[nH]n2)n1`, for which the “% Inhibition” value is recorded as -5% and the Z score was 0.63.
In the same order, the values of `Cc1nnc2n1C[C@@H](NCc1csc(-c3ccccn3)n1)CC2` are -3% and 0.53.
Taken in the same sequence, the figures for `CN(C)c1ccc(C(=O)N2CCN(c3ncccn3)CC2)cn1` were -7% and 1.33.
On to `CCCN(CCc1c[nH]c2ccc(NC(=O)CCC3CCCC3)cc12)CC1CC1`, for which the “% Inhibition” value was 5% and the Z score was -0.79.
As for `CC1CN(Cc2ccccc2)CC1NC(=O)NCc1cnn(C)c1` (stereo not given), the “% Inhibition” value came out at 1% and the Z score is reported as -0.18.
Taken in the same sequence, the figures for `O=C(c1ccsc1)N1C[C@@H]2C[C@H](NS(=O)(=O)c3ccccc3)[C@H]1C2` were 35% and -3.97.
For `CC(=O)c1ccc(CNC(=O)c2ccoc2)nc1C`, the “% Inhibition” value is -12% and the Z score turned out to be 2.1.
On to `CCS(=O)(=O)NCCCNc1c(Cl)cccc1C#N`, for which the “% Inhibition” value was determined as 5% and the Z score is given as -0.54.
In the same order, the values of `CN1CCOC(C(=O)NC(CO)c2ccc(Cl)cc2C(F)(F)F)C1` (stereo not given) are -4% and 0.49.
Taken in the same sequence, the figures for `Fc1cccc(COc2nc3cc4c(cc3cc2CNCCn2ccnc2)OCO4)c1` were 14% and -2.59.
Taken in the same sequence, the figures for `Cc1cccc(NC2CCN(C(=O)NC3CC3)CC2)n1` were -10% and 1.58.
Take `Cn1cc(C(=O)NCC2CCN(Cc3nc4c(F)cccc4[nH]3)CC2)cn1`: the “% Inhibition” value was -15% and the Z score is 2.17.
`Cc1nc(N2CCN(C/C=C/c3ccccc3)CC2)cc([C@H]2C[C@H](N)C2)n1`: the “% Inhibition” value stood at 3% and the Z score is reported as -0.55.
Taken in the same sequence, the figures for `COc1ccccc1Oc1ccc(N[C@H]2CCN(C)C2=O)cc1F` were -7% and 1.25.
For `CCn1c(-c2cc(NC(=O)CCc3ccc(OC)cc3)[nH]n2)cc2c(OC)cccc21`, the “% Inhibition” value was -3% and the Z score was 0.32.
In the same order, the values of `O=C(NCCc1nc(-c2ccc(Cl)cc2)n[nH]1)C1CCC1c1ccc(F)cc1` (stereo not given) are -14% and 1.82.
Taken in the same sequence, the figures for `Cc1ccc(-c2cc(-c3c4ccccc4cc4ccccc34)c(C#N)c(N)c2C#N)cc1` were -27% and 3.21.
In the same order, the values of `COCCc1nc([C@@H]2CCCO2)n(-c2ccc(C(=O)O)cc2)n1` are 7% and -1.33.
As for `Cn1cccc1-c1noc([C@H]2CCN(S(=O)(=O)c3ccccc3)C2)n1`, the “% Inhibition” value is recorded as -17% and the Z score turned out to be 2.29.
In the same order, the values of `CC[C@H](C)NC(=O)CCN(CCCN1CCOCC1)c1nc(-c2ccc(F)cc2)nc2ccccc12` are -11% and 1.4.
Taken in the same sequence, the figures for `O=C(CCN1CCN(c2ccccc2)CC1)N1CC[C@H](O)C1` were 10% and -1.14.
With `OCCOC1CCCN(c2ncnc3c2ncn3CC(CO)C2CCOC2)C1` (stereo not given), the “% Inhibition” value is given as -9% and the Z score was 1.23.
In the same order, the values of `CC(C)S(=O)(=O)CCNC(=O)N1CCC(O)(Cc2ccccc2F)CC1` are -3% and 0.46.
Taken in the same sequence, the figures for `Cc1cccc2[nH]c([C@@H]3CCCN3C(=O)COc3cccnc3)nc12` were 6% and -0.84.
In the same order, the values of `Cn1cnc2c3c(ccc21)N(CC(=O)Nc1nccs1)CCC3` are -6% and 0.66.
For `COc1c(Cl)cccc1NC(=O)N1CCC[C@@H]1CN1CCCC1`, the “% Inhibition” value is recorded as -1% and the Z score was 0.28.
In the same order, the values of `C=C1CCC(NC(=O)[C@H]2CCOC2)CC1` are 13% and -2.29.
Regarding `Cc1cc(C(=O)NCCN2Cc3cc(F)ccc3OCC2=O)c(C)o1`, the “% Inhibition” value is listed as -19% and the Z score came to 2.49.
As to `C#Cc1cccc(NCc2ccc(NC(=O)OC(C)(C)C)nn2)c1`, the “% Inhibition” value is given as -2% and the Z score is 0.42.
Regarding `CC(C)Cc1cc(CN2CCN(Cc3ccsc3)[C@@H](CCO)C2)n[nH]1`, the “% Inhibition” value is recorded as -10% and the Z score amounted to 0.89.
In the case of `CCOC(=O)c1cnc(-c2ccc(OC)cc2)nc1N(CC)CC`, the “% Inhibition” value was 1% and the Z score was -0.12.
Taken in the same sequence, the figures for `COCCN1C[C@H](NC(=O)C2(C#N)CCOCC2)[C@@H](c2ccccc2)C1` were -7% and 1.28.
In the same order, the values of `Cc1cc(C)n(CCCNc2nccnc2C#N)n1` are -13% and 2.34.
In the same order, the values of `Cn1c2c(c(=O)n(C)c1=O)[C@H](c1ccc(Cl)cc1)NC(O)=N2` are 11% and -1.34.
Consider `CCC(C)NC(=O)NC1CCN(c2cc(C)cc(C)c2)C1=O` (stereo not given), for which the “% Inhibition” value is -10% and the Z score worked out at 1.5.
In the same order, the values of `CN1CCN(CCc2cccc(NC(=O)C3CC3c3ccc4ccccc4c3)c2)CC1` (stereo not given) are 5% and -0.69.
Taken in the same sequence, the figures for `COc1ccccc1-c1c(C)nn2c(C(F)(F)F)cc(-c3cccs3)nc12` were -8% and 1.05.
Taken in the same sequence, the figures for `CCOC(=O)c1nc(C(=O)OCC)nc(C(=O)OCC)n1` were -6% and 1.24.
With `CCOc1ccc([C@@H]2CC(c3ccccc3Cl)=NN2C(=O)CN2CCCCC2)cc1`, the “% Inhibition” value is listed as -19% and the Z score worked out at 2.72.
In the same order, the values of `CC1(C)C[C@@H](c2cc(-c3ccc[nH]3)nc(N)c2C#N)CCO1` are -4% and 0.87.
In the same order, the values of `C[C@@H](CC(=O)N1CCc2[nH]c3c(Cl)cccc3c2C1)N1CCOCC1` are 9% and -1.63.
Taken in the same sequence, the figures for `CCN1CCC[C@@H]1CNC(=O)c1ccoc1C` were -6% and 1.14.
On to `CCc1cc([C@@H]2CCCN2C(=O)Nc2cc(C)cc(C)c2)on1`, for which the “% Inhibition” value is -8% and the Z score was 1.13.
Consider `Cc1nc(Cn2nnnc2C2CCCC2)sc1C`, for which the “% Inhibition” value was found to be 1% and the Z score is on record as -0.19.
With `COc1ccc2c(/C=C/c3cc[n+](C)cc3)cn(Cc3ccccc3)c2c1`, the “% Inhibition” value stood at 68% and the Z score was -6.36.
Taken in the same sequence, the figures for `Cc1ccc(Cn2ccc(NC(=O)c3cc(C(C)C)on3)n2)cc1` were -11% and 1.26.
Taken in the same sequence, the figures for `COc1ccc(C2=CCN(C(=O)CCn3ccc4ccccc43)C2)cc1` were -10% and 1.32.
On to `CC(=O)Nc1nc(C(=O)NCc2ccc(C)n2C)cs1`, for which the “% Inhibition” value is recorded as -1% and the Z score was found to be 0.16.
In the same order, the values of `C=C(C)CN1CCN(CCCn2ccnc2)CC1` are -5% and 0.45.
Take `CC(NC(=O)NC1CCCCc2cc(Br)ccc21)c1ccn(C)n1` (stereo not given): the “% Inhibition” value was found to be 6% and the Z score is reported as -1.01.
Taken in the same sequence, the figures for `CC1CC2CCCCC2N1c1ncnc2c1ncn2CC1(O)CCOC1` (stereo not given) were -17% and 3.38.
In the same order, the values of `O=C1C[C@H](c2ccc(OCc3ccc(Cl)cc3)cc2)c2cnn(-c3nc4ccccc4s3)c2N1` are -10% and 1.64.
Taken in the same sequence, the figures for `CC[C@H](Nc1nc(COC)nc2c1cnn2C)c1ccnn1C` were -10% and 0.99.
In the case of `CN1CCC(N2CCC[C@H]2c2nc(-c3ccc(F)cn3)no2)CC1`, the “% Inhibition” value stood at 15% and the Z score is -1.76.
Consider `Cc1cc(C(=O)Nc2cccc(-c3nc4ccccc4s3)c2)nn1C`, for which the “% Inhibition” value is -9% and the Z score is 1.28.
In the same order, the values of `CNS(=O)(=O)Cc1ccccc1CNC(=O)c1ccc2c(c1)C(=O)N(Cc1ccccc1)C2=O` are -8% and 1.01.
In the same order, the values of `CCOc1ncccc1C(=O)N1CC[C@H](n2cnc3ccccc32)C1` are -17% and 2.21.
In the same order, the values of `CN(CCn1cnnc1)C(=O)CCn1ccc2cc(Cl)ccc21` are -8% and 0.74.
`O=C(c1ccc(=O)n(CCN2CCOCC2)c1)N1CCC(Cc2ccccc2)CC1`: the “% Inhibition” value turned out to be 6% and the Z score was -0.91.
Taken in the same sequence, the figures for `O=S1(=O)N=C(NC[C@@H](O)Cc2ccccc2)c2ccccc21` were 39% and -5.57.
Taken in the same sequence, the figures for `CCN(CCC#N)C(=O)COc1cccc(F)c1C#N` were -10% and 1.35.
In the same order, the values of `CCc1nc(-c2cccc(NC(=O)c3cccc(Cl)c3)c2)no1` are -23% and 4.01.
Consider `CC1CCN(C(=O)c2cc3nc(-c4ccco4)cc(C(F)(F)F)n3n2)C(C)C1` (stereo not given), for which the “% Inhibition” value is reported as -14% and the Z score was 2.24.
Taken in the same sequence, the figures for `CCN1C[C@@H](CN(C)Cc2nc(-c3ccsc3)oc2C)CC1=O` were -16% and 2.06.
For the molecule `Cc1ccc(CCNC(=O)[C@@H]2CCCN2C(=O)C2CCCCC2)o1`, the “% Inhibition” value is recorded as -18% and the Z score was 2.29.
